Like-named read-outs stand apart in the source and are kept apart here. Positions of bridges follow the written chain, without caps; N, C: chain ends. Non-standard residues stand in square brackets, D forms with d. Residues, ends and D or L forms follow the SMILES beside them. *: point of attachment. Ileψ(thiazoline)Cys = CC[C@H](C)[C@H](N)C1=N[C@H](C(=O)*)CS1; dOrn = NCCC[C@@H](N)C(=O)O Some results are limits rather than exact numbers.

Assay [1] relates to Staphylococcus epidermidis. Description: Zones of inhibition of antibiotic-treated catheter segments with daily transfer to fresh plates. The note with it: catheter treated with 5 percent (w/v) antibiotic. Type of assay: cell-based.
Where [2] appears, read: catheter TREATMENT: 5% ANTIBIOTIC

Turning to bismuth sulfadiazine, the “Zones of Inhibition Against Pseudomonas aeruginosa” value with Pseudomonas aeruginosa (catheter treated with 2% Bismuth Salt) is recorded as 6.5 mm; in the assay on Pseudomonas aeruginosa (catheter treated with 2% Bismuth Salt + 3% Minocycline), 15.5 mm.
On to `Clc1ccc(COC(Cn2ccnc2)c2ccc(Cl)cc2Cl)c(Cl)c1` (centres unmarked) [Miconazole, miconazole], for which the “Zones of Inhibition Against Pseudomonas aeruginosa” value in the assay on Pseudomonas aeruginosa (setting [2]) came out at 0 mm.
On the same count and under the same terms, next, gentamycin: 22 mm; `CC(C)(O/N=C(\C(=O)N[C@@H]1C(=O)N2C(C(=O)[O-])=C(C[n+]3ccccc3)CS[C@H]12)c1csc(N)n1)C(=O)O` [Ceftazidine, ceftazidine]: 28 mm.
With `NC[C@H]1O[C@H](O[C@H]2[C@H](O)[C@@H](O[C@H]3O[C@H](CO)[C@@H](O)[C@H](N)[C@H]3O)[C@H](N)C[C@@H]2N)[C@H](N)C[C@@H]1O` [Tobramycin (Tb), tobramycin], the “Zones of Inhibition Against Pseudomonas aeruginosa” value in the assay with Pseudomonas aeruginosa (setting [2]) is given as 27 mm. The “Zones of Inhibition” value in assay [1] (DAY 1) is given as more than 25 mm; in assay [1] (DAY 4) it was 7 mm; in assay [1] (DAY 7) it was 0 mm.
With `CC[C@H](C)[C@H](N)C1=N[C@H](C(=O)N[C@@H](CC(C)C)C(=O)N[C@H](CCC(=O)O)C(=O)N[C@H](C(=O)N[C@H]2CCCCNC(=O)[C@H](CC(N)=O)NC(=O)[C@@H](CC(=O)O)NC(=O)[C@H](Cc3cnc[nH]3)NC(=O)[C@@H](Cc3ccccc3)NC(=O)[C@H]([C@@H](C)CC)NC(=O)[C@@H](CCCN)NC2=O)[C@@H](C)CC)CS1` [Bacitracin, bacitracin] ({Ileψ(thiazoline)Cys}-L[dE]IK[dOrn]I[dF]H[dD]N; lactam 4-C), the “Zones of Inhibition Against Pseudomonas aeruginosa” value in the assay on Pseudomonas aeruginosa (24 h) was 0 mm.
Take `CCn1cc(C(=O)O)c(=O)c2cc(F)c(N3CCNCC3)cc21` [Norfloxacin (Nf), norfloxacin]: the “Zones of Inhibition Against Pseudomonas aeruginosa” value with Pseudomonas aeruginosa (setting [2]) came out at 25 mm. For the same molecule, the figures for the “Zones of Inhibition” value in assay [1] (DAY 1), in assay [1] (DAY 4) and in assay [1] (DAY 7) were more than 25 mm, 10 mm and 8 mm, respectively.
For the molecule `CO[C@H]1/C=C/O[C@@]2(C)Oc3c(C)c(O)c4c(O)c(c(/C=N/N5CCN(C)CC5)c(O)c4c3C2=O)NC(=O)/C(C)=C\C=C\[C@H](C)[C@H](O)[C@@H](C)[C@@H](O)[C@@H](C)[C@H](OC(C)=O)[C@@H]1C` [Rifampin (R), rifampin], in the assay on Pseudomonas aeruginosa (setting [2]), the “Zones of Inhibition Against Pseudomonas aeruginosa” value was 8.0 mm.
The same measure, in the same setting: next, `Cc1onc(-c2c(Cl)cccc2Cl)c1C(=O)N[C@@H]1C(=O)N2[C@@H]1SC(C)(C)[C@@H]2C(=O)O` [Dicloxacillin, dicloxacillin]: 0 mm.
`CN(C)c1ccc(O)c2c1C[C@H]1C[C@H]3[C@H](N(C)C)C(O)=C(C(N)=O)C(=O)[C@@]3(O)C(O)=C1C2=O` [Minocycline (M), minocycline]: the “Zones of Inhibition Against Pseudomonas aeruginosa” value with Pseudomonas aeruginosa (setting [2]) is 0 mm. In addition, the “Zones of Inhibition” value in assay [1] (DAY 1) was more than 25 mm; in assay [1] (DAY 4), 26 mm; in assay [1] (DAY 7), 15 mm.

The values above are taken from patent US20050192547A1, “Combinations of antiseptic and antibiotic agents containing medical devices” (priority 2002, published 2005).
